Source: the supplement of paper PMC7826260
Some of the results follow. The data describe in vitro nicking of single-stranded DNA by Rep domains (1 h at 37 °C, 3 µM enzyme); the outer parts of the 90-letter strands are left off. Numbers give uncut DNA relative to the enzyme-free pool, as log2; strong cutting gives strongly negative numbers. There is no active / inactive call. The scaling is to total reads, so uncut sequences can rise above 0 when many others are cut.

What follows are sequences tested on T1, Rep nickase domain of tomato golden mosaic virus (assay: uncleaved DNA left, log2 of reads against the no-enzyme library (log2 ratio); higher = less cleavage (more negative = more Rep cleavage of the k-mer); sequences stand for … in CTCGTCCG…ACCGGAGA).
T1 sequence (Rep 1-124, printed without the tag): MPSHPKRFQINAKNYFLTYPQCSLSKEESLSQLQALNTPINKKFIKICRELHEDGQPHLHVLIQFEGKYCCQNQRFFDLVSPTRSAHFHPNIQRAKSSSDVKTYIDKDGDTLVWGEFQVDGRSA
Experimental: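 A pool of 90-nt single-stranded DNAs with seven random bases just before the constant AC of the nick site (name = the seven bases) was cut by 3 µM recombinant His6-SUMO-tagged Rep nickase domain (300 nM DNA, 50 mM HEPES pH 8.0, 50 mM NaCl, 1 mM MnCl2, 1 h, 37 °C, three replicates). Uncut DNA was amplified and sequenced.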
GAAGACG was tested, and the “uncleaved DNA left (log2)” value was 0.128.
In the case of TGTTAGC, the “uncleaved DNA left (log2)” value is reported as -0.0623.
TAAGTAA was tested, and the “uncleaved DNA left (log2)” value was 0.0825.
With GGTGTCT the “uncleaved DNA left (log2)” value was -0.104.
For GCTCTAT, the “uncleaved DNA left (log2)” value was 0.0427.
CACCTCG was tested, and the “uncleaved DNA left (log2)” value was 0.00287.
In the case of AACTACA, the “uncleaved DNA left (log2)” value is reported as 0.141.
GGCCCAA was tested, and the “uncleaved DNA left (log2)” value was 0.169.
With AGGCCTT the “uncleaved DNA left (log2)” value was -0.0262.
In the case of GGTTGCC, the “uncleaved DNA left (log2)” value is reported as -0.0782.
In the case of AAAGGTA, the “uncleaved DNA left (log2)” value is reported as 0.2.
In the case of GCGTCCA, the “uncleaved DNA left (log2)” value is reported as -0.0493.
GAAGAAT was tested, and the “uncleaved DNA left (log2)” value was 0.209.
In the case of TGCCAAA, the “uncleaved DNA left (log2)” value is reported as -0.0393.
In the case of GTATATA, the “uncleaved DNA left (log2)” value is reported as 0.178.
TGACCGG was tested, and the “uncleaved DNA left (log2)” value was 0.157.
In the case of GATGAGT, the “uncleaved DNA left (log2)” value is reported as 0.226.
TCTATAC was tested, and the “uncleaved DNA left (log2)” value was -0.0975.
In the case of AGGCCGC, the “uncleaved DNA left (log2)” value is reported as 0.0576.
With TTCATAC the “uncleaved DNA left (log2)” value was 0.00425.
In the case of CATTTGT, the “uncleaved DNA left (log2)” value is reported as -0.148.
In the case of CCTTAGG, the “uncleaved DNA left (log2)” value is reported as -0.0525.
In the case of CAGTTAA, the “uncleaved DNA left (log2)” value is reported as 0.106.
In the case of ACCTAAA, the “uncleaved DNA left (log2)” value is reported as -0.0209.
For GTTGACG, the “uncleaved DNA left (log2)” value was 0.156.
In the case of TATCGTA, the “uncleaved DNA left (log2)” value is reported as 0.0567.
In the case of TCGTCGA, the “uncleaved DNA left (log2)” value is reported as -0.0423.
In the case of CGGTCTT, the “uncleaved DNA left (log2)” value is reported as -0.278.
For CCCGATC, the “uncleaved DNA left (log2)” value was 0.199.
In the case of CCAATGT, the “uncleaved DNA left (log2)” value is reported as 0.0407.
CCTTACC was tested, and the “uncleaved DNA left (log2)” value was 0.022.
AACTCAA was tested, and the “uncleaved DNA left (log2)” value was 0.00367.
With AATCGGG the “uncleaved DNA left (log2)” value was 0.067.
In the case of GAAAGAT, the “uncleaved DNA left (log2)” value is reported as 0.0288.
In the case of CGCGTTG, the “uncleaved DNA left (log2)” value is reported as 0.264.
With AATCTCA the “uncleaved DNA left (log2)” value was -0.0621.
For CGTCCCA, the “uncleaved DNA left (log2)” value was -0.0229.
With ACGGTAC the “uncleaved DNA left (log2)” value was -0.0811.
For TCTCTAA, the “uncleaved DNA left (log2)” value was -0.0207.
CTGCGCT was tested, and the “uncleaved DNA left (log2)” value was -0.236.
